Test results: PubChem BioAssay AID624296 (National Center for Advancing Translational Sciences (NCATS), 2012)
About 9,900 (2.8%) of roughly 350,000 compounds were called active. The inconclusive results got no clear call from the source; some entries with a clear call stand among them for comparison. Calls follow the shape of the dose curve; as a rule, active = well fitted activation curve with a large enough effect; inconclusive = small, poorly fitted or top-dose-only effect; inactive = no such curve, though single readings can be large or run the other way. No potency is given beside an inconclusive call; the fits are too rough.

Test: A quantitative high throughput screen for small molecules that induce DNA re-replication in MCF 10a normal breast cells. Also: nearly all actives have a fitted effect of over 50% in size. As to activity, positive = re-replication: % of control where 0% means no effect.
Conditions: MCF 10A DNA re-replication, Hoechst nuclear intensity, 48 h; activity, positive = re-replication: at 46.1 µM (top of the series)
Potency is read from the fitted curve at half-maximal effect; tags tell the direction and shape of the fitted curve.

Structure (SMILES) | Potency | activity, positive = re-replication
O=C(COC(=O)c1ccco1)c1ccc(Cl)cc1 | inconclusive [activator, full curve, poor fit] | 
CC(C)(C)c1nn(-c2ccccc2)c2[nH]c(=O)c(CNCc3ccco3)cc12 | inconclusive [activator, full curve, poor fit] | 
Cc1ccc(CNC(=O)c2ccc(NC3=NC4CS(=O)(=O)CC4S3)cc2)cc1 (configuration not stated) | inconclusive [activator, single point] | 
COc1ccc(/C=N/Nc2cc(C)nc(-n3nc(C)cc3C)n2)c(OC)c1 | inconclusive [activator, single point] | 
CCOCCCNC(=S)Nc1ccc2nc(N3CCN(CC)CC3)cc(C)c2c1 | inconclusive [activator, partial curve] | 
C=CCOc1cccc(CNn2cn[nH]c2=S)c1 | inconclusive [activator, single point] | 
O=C(Nc1cccc(Cl)c1)OCCOC(=O)Nc1cccc(Cl)c1 | inconclusive [activator, single point] | 
Fc1ccc(CNC(=S)Nc2ccccc2Cl)cc1 |  | inactive: -0.514%
CN(c1ccccc1)S(=O)(=O)c1ccccc1Br |  | inactive: 4.26%
CC(C)Cn1c(N)c(C(=O)COC(=O)C2CC(=O)N(c3ccc4c(c3)OCCO4)C2)c(=O)n(C)c1=O (configuration not stated) | inconclusive [activator, partial curve, poor fit] | 
Cc1sc2ncnc(N3CCC(C(=O)NNC(=O)COc4ccc(Br)cc4)CC3)c2c1C | inconclusive [activator, partial curve, poor fit] | 
C=CCSc1nnc(CSc2nc3sc4c(c3c(=O)[nH]2)CCCC4)n1-c1ccccc1 | inconclusive [activator, full curve, poor fit] | 
Cc1ccc(Sc2ncccc2COC(=O)Nc2c(C)cccc2C)cc1 | inconclusive [activator, full curve, poor fit] | 
COCCCNCCOCCOc1ccc(Cl)cc1Br | inconclusive [activator, partial curve, poor fit] | 
COc1cccc(C(=O)c2cn(CC(=O)NCc3ccco3)c3nc(C)ccc3c2=O)c1 |  | inactive: 0.689%
CC1CCN(C(=O)c2cc3nc(-c4ccccc4)cc(-c4ccccc4)n3n2)CC1 | active: 16.4 µM | 
CCOc1ccc(NC(=O)c2ccccc2OCC(=O)c2ccc(C)cc2)cc1 | inconclusive [activator, partial curve, poor fit] | 
COC(=O)c1[nH]c2ccc(Cl)cc2c1NC(=O)c1ccccc1[N+](=O)[O-] |  | inactive: 4.68%
O=C(COC(=O)c1cc2c(s1)CCC2)Nc1ccc(F)cc1 | inconclusive [activator, partial curve, poor fit] | 
Cc1ccc(Nc2nc(-c3ccc(O)cc3O)cs2)nc1 |  | inactive: 24.9%
Cn1cc(Br)c(C(=O)NNC(=O)Nc2ccccc2C(F)(F)F)n1 |  | inactive: 0.533%
Nc1nc(CN2CCN(c3ccccc3)CC2)nc(Nc2ccc(Cl)cc2)n1 | inconclusive [activator, single point] | 
COc1ccc(-c2[nH]ncc2CN2C[C@@H]3CCC[C@H]2C3)c(F)c1 |  | inactive: 17.7%

Structure (SMILES) | Potency | activity, positive = re-replication
Cc1ccccc1NS(=O)(=O)c1ccc(N2CCCC2=O)cc1 | active: 11.6 µM | 
O=c1cc(O)c2c(=O)n(Cc3ccccc3)c3ccccc3c2o1 | inconclusive [activator, full curve] | 
CNC(=O)c1cc(NC(=O)CCn2nc(-c3ccc(C)cc3)c3ccccc3c2=O)ccc1OC |  | inactive: 12.4%
CCc1nc2ccccc2n1CC(O)COc1ccc(NC(C)=O)cc1 (configuration not stated) | inconclusive [activator, single point] | 
C=CCOC(=O)CSCC(NC(=O)OC(C)(C)C)C(=O)OCC (configuration not stated) |  | inactive: 0.827%
Cn1nnnc1Sc1ncnc2scc(-c3ccccc3)c12 | inconclusive [activator, single point] | 
COc1ccc(C(=O)OCC(=O)NC(=O)NC2CCCC2)c(O)c1 |  | inactive: -0.54%
COc1cc(/C=C(\C#N)c2ccccn2)cc(OC)c1O | inconclusive [activator, single point] | 
COc1cc2c(cc1NC(=O)c1ccncc1)oc1ccccc12 | inconclusive [activator, single point] | 
CCC(CC)NC(=O)c1cc(OC)c(OC)c(OC)c1 | inconclusive [activator, partial curve, poor fit] | 
COC(=O)[C@@H]1CC[C@H](C)[C@@H](c2ccc(C)cc2)N1C(=O)c1ccc(/C=N/O[C@@H](C)CN2CCCCc3nc(C)c(C)cc32)cc1 | inconclusive [activator, partial curve, poor fit] | 
CCOc1ccc(C(=O)CCCC(=O)c2ccc(OCC)cc2)cc1 | inconclusive [activator, partial curve, poor fit] | 
CCOC(=O)C1CCCN(Cc2cc(=O)oc3cc(C)c(C(C)C)cc23)C1 (configuration not stated) | inconclusive [activator, partial curve, poor fit] | 
COC(=O)c1cc(C(=O)N2CCN(c3ncccn3)CC2)cc([N+](=O)[O-])c1 |  | inactive: 59.9%
CC1(C)CC(=O)C(C=Nc2ccc3cn[nH]c3c2)=C(O)C1 |  | inactive: -1.08%
CCCNCc1cc(OC)c(OCc2ccccc2)cc1Br | inconclusive [activator, partial curve, poor fit] | 
CCOc1nc2ccccc2cc1C=O | inconclusive [activator, single point] | 
Cn1cnc([N+](=O)[O-])c1Sc1ccc(C(C)(C)C)cc1 | inconclusive [activator, partial curve, poor fit] | 
Nc1cc(=O)[nH]c(SCC(=O)Nc2cc(S(=O)(=O)N3CCCCCC3)ccc2Cl)n1 | inconclusive [activator, partial curve, poor fit] | 
Cc1cc(/C=N/NC(=O)c2cccs2)c(C)n1-c1ccccc1 | inconclusive [activator, partial curve, poor fit] | 
CC(=O)Nc1ccccc1N(C)S(=O)(=O)c1ccc(C)cc1 | inconclusive [activator, single point] | 
COC1CCC2(C)C(=CCC3C4CC(O)CC4(C)CCC32)C1 (configuration not stated) |  | inactive: 11.5%
COc1cc(/C=C/C(=O)O)cc(OC)c1 | inconclusive [activator, full curve, poor fit] | 

Structure (SMILES) | Potency | activity, positive = re-replication
Cn1c(CNC(=O)C2CCCCC2)cc2cc(Cl)ccc21 | inconclusive [activator, partial curve, poor fit] | 
Cc1cc2c(C)nc(N/N=C/c3ccccc3)nc2o1 | inconclusive [activator, single point] | 
S=c1[nH]ncn1/N=C/c1cccc(Oc2ccccc2)c1 | inconclusive [activator, full curve, poor fit] | 
Cc1ccc(S(=O)(=O)NCC(c2ccco2)N2CCc3ccccc32)cc1 (configuration not stated) | inconclusive [activator, partial curve, poor fit] | 
Cc1ccc(CNC(=O)CNC(=S)N(Cc2ccccc2)Cc2ccccc2F)cc1 | inconclusive [activator, single point] | 
COc1ccc(NC(=O)c2ccco2)cc1NC(=O)c1ccc(C#N)cc1F | inconclusive [activator, partial curve, poor fit] | 
CCCCC[C@@H]1C=C(C(=O)O)[C@H](c2ccc(Cl)cc2)N1S(=O)(=O)c1ccc(C)cc1 | inconclusive [activator, single point] | 
COC(=O)N1C(=O)[C@](c2ccc(OC)cc2)(C(C)C)N1C(=O)OC | inconclusive [activator, single point] | 
CC(=O)N1CCOCCOCCOCC1 | inconclusive [activator, partial curve, poor fit] | 
Cc1ccc(SSc2cc(C)ccc2N)c(N)c1 | inconclusive [activator, partial curve, poor fit] | 
O=C(Nc1ccc(F)cc1)c1nc2c(nnn2Cc2cccc3ccccc23)c(=O)[nH]1 | inconclusive [activator, single point] | 
COCCCn1c(=NC(=O)c2ccccc2)c(C#N)cc2c(=O)n3cccc(C)c3nc21 | active: 6.51 µM | 
COC(=O)CNC(=O)CN1C(=O)N(c2cccc(Cl)c2)C(N(O)C(=O)Nc2cccc(Cl)c2)C1(C)C (configuration not stated) | inconclusive [activator, partial curve, poor fit] | 
COC(=O)C=C1CCC2C3CCC4=CC(=O)C(Br)CC4(C)C3C(=O)CC12C (configuration not stated) | inconclusive [activator, single point] | 
CC(Sc1nc2ccccc2s1)C(=O)Nc1ccc2c(c1)OCO2 (configuration not stated) | inconclusive [activator, single point] | 
COc1ccc(C2=NOC(C(=O)NCc3cccs3)C2)cc1 (configuration not stated) | active: 9.2 µM | 
COc1ccc(OC(=O)c2cc3ccccc3o2)cc1 |  | inactive: -2.96%
CC1CCN(c2ccc(S(=O)(=O)NC3=NCCCCC3)cc2[N+](=O)[O-])CC1 |  | inactive: 16.8%
O=C1CC(NCCN2CCOCC2)C(=O)N1Cc1ccc(N2CCCC2=O)cc1 (configuration not stated) | inconclusive [activator, single point] | 
COc1ccc(OC)c(NC(=O)Nc2cnccn2)c1 |  | inactive: 1.93%
CCCn1nc(C(=O)Nc2nc3ccccc3[nH]2)c2ccccc2c1=O | inconclusive [activator, partial curve, poor fit] | 
